Reference: PubChem BioAssay (Tox21)
Several values for one entry are separate records, joined by “and”; a condition that tells them apart may be missing. Identical values can stand only once. The source holds several records for some structures; these can differ, active in one and inactive in another. Activity calls are given as the source filed them. Unless noted, calls follow the shape of the dose curve; as a rule, active = well fitted curve in the direction sought with a large enough effect in the repeat runs; inconclusive = weak or mixed curves; inactive = no such curve, though single readings can be large; an effect the other way counts as inactive or inconclusive.

What was measured:
[1] = qHTS assay to identify small molecule antagonists of the androgen receptor (AR) signaling pathway using the MDA cell line - cell viability counter screen (AID 743041; also: nearly all actives have a fitted effect of over 45% in size; as to viability change, negative = cytotoxic: % is scaled to controls: 0 for no effect and ±100 for the full control effect); settings: MDA-kb2 viability, CellTiter-Fluor, 16 h, cells co-treated with R1881 androgen agonist; viability change, negative = cytotoxic: at 70.3 µM (top of the series) unless noted
Outline: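 MDA-kb2 AR-luc cells (MMTV-luciferase, AR/GR responsive) treated with compounds plus R1881 agonist for 16 h at 37C. CellTiter-Fluor added at 15.5 h; fluorescence read after 30 min in the same wells.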

[2] = qHTS assay to identify small molecule antagonists of the thyroid receptor (TR) signaling pathway - cell viability counter screen (AID 743064); settings: GH3.TRE-Luc viability, CellTiter-Fluor, 24 h; activity change, negative = cytotoxic: at 70.3 µM (top of the series); also: nearly all actives have a fitted effect of over 50% in size; as to activity change, negative = cytotoxic: % is scaled to controls: 0 for no effect and ±100 for the full control effect
Outline: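 Rat GH3 pituitary tumor cells stably expressing two TR response elements driving luciferase were plated, rested 4 h, then dosed with library compounds and T3 (1 nM final). After 23.5 h at 37 °C, CellTiter-Fluor was added for 30 min and fluorescence recorded.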

[3] = qHTS assay to identify small molecule antagonists of the thyroid receptor (TR) signaling pathway (AID 743065); also: nearly all actives have a fitted effect of over 55% in size
Outline: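 GH3.TRE-Luc rat pituitary cells (two TREs driving luciferase) were dosed with compound, then stimulated with 1 nM T3 (final) for 23.5 h at 37 C. ONE-Glo luminescence was the read-out, with CellTiter-Fluor fluorescence as the cytotoxicity counter-screen.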

[4] = test system: thyroid hormone receptor (rat, GH3 cells); test: qHTS assay to identify small molecule agonists of the thyroid receptor (TR) signaling pathway (AID 743066; calls by dose curve; as to activation: % is scaled to controls: 0 for no effect and ±100 for the full control effect); settings: GH3.TRE-Luc cells, TR agonist luciferase, 24 h; activation: at 83.9 µM (top of the series) unless noted
[5] = target: Estrogen receptor (Homo sapiens) (UniProt P03372); test: qHTS assay to identify small molecule antagonists of the estrogen receptor alpha (ER-alpha) signaling pathway (AID 743069; active = well fitted curve in the direction sought with a large enough effect in the signal ratio in the repeat runs, not every such curve was filed as active; inconclusive = weak or mixed curves, or effect the other way; inactive = no such curve, though single readings can be large or run the other way; the % refers to the signal ratio); settings: HEK293 ER-alpha-UAS-bla, beta-lactamase ratio, antagonist mode; activity, negative = inhibition: at 69.4 µM (top of the series)
Outline: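 HEK293 ER-alpha-UAS-bla GripTite cells, held overnight in 2% charcoal-stripped FBS, 5,000 cells/well, preincubated 4 h, then compound plus 17beta-estradiol for 18 h at 37C. Beta-lactamase read by LiveBLAzer B/G FRET substrate, 2 h at room temperature.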

[6] = qHTS assay to identify small molecule antagonists of the estrogen receptor alpha (ER-alpha) signaling pathway - cell viability counter screen (AID 743074; calls by dose curve;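 also: HEK293 cells carrying ER-alpha-UAS-bla reporter stimulated with 17beta-estradiol; nearly all actives have a fitted effect of over 45% in size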)
[7] = target: Estrogen receptor (Homo sapiens) (UniProt P03372); test: qHTS assay to identify small molecule agonists of the estrogen receptor alpha (ER-alpha) signaling pathway (AID 743075; calls by dose curve); settings: HEK293 ER-alpha-UAS-bla, beta-lactamase FRET ratio, 18 h; activation: at 70.1 µM (top of the series)
[8] = target: Estrogen receptor (Homo sapiens) (UniProt P03372); test: qHTS assay to identify small molecule agonists of the estrogen receptor alpha (ER-alpha) signaling pathway using the BG1 cell line (AID 743079); settings: BG1Luc4E2 cells, ERE-luciferase agonist, 22 h; activation: at 70.3 µM (top of the series) unless noted; also: nearly all actives have a fitted effect of over 20% in size
[9] = qHTS assay to identify small molecule antagonists of the estrogen receptor alpha (ER-alpha) signaling pathway using the BG1 cell line (AID 743080; calls by dose curve;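 also: BG1 cells stimulated with 17beta-estradiol alongside compound; nearly all actives have a fitted effect of over 25% in size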); settings: BG1Luc4E2 ERE-luciferase antagonist mode, luminescence; activity change, negative = inhibition: at 70.3 µM (top of the series) unless noted
Outline: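 After 5 days in phenol-red-free 10% charcoal-stripped FBS medium, BG1-Luc-4E2 cells were seeded, left 24 h at 37 C, co-treated with compounds and 17beta-estradiol for 21.5 h, then assayed for viability and luciferase.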

[10] = qHTS assay to identify small molecule antagonists of the estrogen receptor alpha (ER-alpha) signaling pathway using the BG1 cell line - cell viability counter screen (AID 743081);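 also: compound given together with 17beta-estradiol as the ER stimulus; nearly all actives have a fitted effect of over 45% in size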
[11] = target: Peroxisome proliferator-activated receptor gamma (Homo sapiens) (UniProt P37231); test: qHTS assay to identify small molecule agonists of the peroxisome proliferator-activated receptor gamma (PPARg) signaling pathway (AID 743094; active = well fitted activation curve with a large enough effect in the signal ratio in the repeat runs, not every such curve was filed as active; inconclusive = weak or mixed curves, or effect the other way; inactive = no such curve, though single readings can be large or run the other way; the % refers to the signal ratio; as to activation: % is scaled to controls: 0 for no effect and ±100 for the full control effect); settings: HEK293H PPARg-UAS-bla, beta-lactamase FRET ratio, 17 h; activation: at 57 µM (top of the series) unless noted
Outline: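 Beta-lactamase FRET fluorescence was the read-out after a 1 h room-temperature substrate step, following 17 h compound treatment at 37C of HEK293H cells expressing a UAS-driven bla reporter responsive to PPARg.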

[12] = target: Peroxisome proliferator-activated receptor gamma (Homo sapiens) (UniProt P37231); test: qHTS assay to identify small molecule antagonists of the peroxisome proliferator-activated receptor gamma (PPARg) signaling pathway (AID 743191; calls by dose curve; also: nearly all actives have a fitted effect of over 30% in size); settings: HEK293H PPARg-UAS-bla, beta-lactamase ratio, antagonist, 17 h; ratio activity, negative = inhibition: at 62.6 µM (top of the series) unless noted
Outline: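 GeneBLAzer PPARg UAS-bla HEK293H cells, 5 h post-plating, exposed to compounds 17 h at 37C. LiveBLAzer B/G FRET substrate added for 1 h at room temperature; beta-lactamase reporter read by fluorescence intensity.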

[13] = target: Aromatase (Homo sapiens) (UniProt P11511); test: qHTS assay to identify aromatase inhibitors (AID 743083); also: nearly all actives have a fitted effect of over 55% in size
[14] = qHTS assay to identify small molecule that activate the aryl hydrocarbon receptor (AhR) signaling pathway - cell viability counter screen (AID 743086); also: nearly all actives have a fitted effect of over 45% in size
Outline: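 HepG2-AhR-luc (HG2L7.5c1) cells, 4000/well, treated 24 h at 37 C with compound; viability measured as CellTiter-Fluor fluorescence after 30 min in the same wells as the luciferase read.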

[15] = qHTS assay to identify aromatase inhibitors - cell viability counter screen (AID 743084);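 also: cells stimulated with testosterone during compound exposure; nearly all actives have a fitted effect of over 55% in size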
Potency is read from the fitted curve at half-maximal effect; tags tell the direction and shape of the fitted curve or compound fluorescence and quenching.

Chain of UniProt P03372 (P03372 whole entry, looked up): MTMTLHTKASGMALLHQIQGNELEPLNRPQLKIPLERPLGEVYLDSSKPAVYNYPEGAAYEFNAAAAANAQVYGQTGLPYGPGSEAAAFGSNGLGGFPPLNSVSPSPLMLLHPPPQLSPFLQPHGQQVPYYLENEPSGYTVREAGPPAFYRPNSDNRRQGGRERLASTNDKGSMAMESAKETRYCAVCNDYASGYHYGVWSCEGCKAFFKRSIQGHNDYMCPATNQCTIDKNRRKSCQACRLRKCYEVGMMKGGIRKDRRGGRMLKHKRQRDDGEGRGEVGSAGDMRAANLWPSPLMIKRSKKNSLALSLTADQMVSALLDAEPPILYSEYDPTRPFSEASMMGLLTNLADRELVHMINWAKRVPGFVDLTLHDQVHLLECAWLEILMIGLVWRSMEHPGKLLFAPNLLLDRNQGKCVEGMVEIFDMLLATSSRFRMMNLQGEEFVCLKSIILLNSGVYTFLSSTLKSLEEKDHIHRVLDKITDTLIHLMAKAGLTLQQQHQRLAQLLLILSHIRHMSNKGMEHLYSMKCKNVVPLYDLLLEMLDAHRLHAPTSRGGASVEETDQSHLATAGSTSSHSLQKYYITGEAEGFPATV
Chain of UniProt P37231 (P37231 whole entry, looked up): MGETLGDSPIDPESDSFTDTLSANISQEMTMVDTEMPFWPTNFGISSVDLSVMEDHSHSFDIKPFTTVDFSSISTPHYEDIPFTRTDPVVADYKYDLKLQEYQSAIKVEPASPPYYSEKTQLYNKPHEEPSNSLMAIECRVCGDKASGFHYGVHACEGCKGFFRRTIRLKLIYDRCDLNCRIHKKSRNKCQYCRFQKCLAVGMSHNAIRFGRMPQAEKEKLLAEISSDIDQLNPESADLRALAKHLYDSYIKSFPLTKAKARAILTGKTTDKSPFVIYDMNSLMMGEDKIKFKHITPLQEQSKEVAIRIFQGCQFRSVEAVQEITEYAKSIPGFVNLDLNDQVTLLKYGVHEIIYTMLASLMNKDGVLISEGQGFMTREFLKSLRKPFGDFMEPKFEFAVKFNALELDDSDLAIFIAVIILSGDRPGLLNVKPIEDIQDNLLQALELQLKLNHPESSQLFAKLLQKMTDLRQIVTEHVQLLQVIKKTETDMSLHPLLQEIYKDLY
Chain of UniProt P11511 (P11511 whole entry, looked up): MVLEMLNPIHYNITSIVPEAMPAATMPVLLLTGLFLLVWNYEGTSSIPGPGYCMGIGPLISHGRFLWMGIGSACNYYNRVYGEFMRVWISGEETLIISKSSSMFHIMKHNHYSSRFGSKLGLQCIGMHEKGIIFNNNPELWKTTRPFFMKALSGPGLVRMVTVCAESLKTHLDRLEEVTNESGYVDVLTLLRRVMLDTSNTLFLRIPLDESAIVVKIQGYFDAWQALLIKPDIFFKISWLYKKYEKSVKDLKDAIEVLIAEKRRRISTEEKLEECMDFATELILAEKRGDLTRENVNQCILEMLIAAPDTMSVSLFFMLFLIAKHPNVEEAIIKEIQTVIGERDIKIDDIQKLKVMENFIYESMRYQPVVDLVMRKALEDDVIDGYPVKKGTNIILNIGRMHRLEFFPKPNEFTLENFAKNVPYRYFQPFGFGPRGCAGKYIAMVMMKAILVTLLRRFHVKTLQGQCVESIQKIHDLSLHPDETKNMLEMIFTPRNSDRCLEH

Q: Which Potency [1] does the source give for `CCc1nn(C)c(C(=O)NCc2ccc(C(C)(C)C)cc2)c1Cl` here?
A: Its Potency is active: 0.0863 µM.

Q: And the Potency [2]?
A: Its Potency is inconclusive: 68.6 µM [cytotoxic, single point].

Q: What about the Potency [3] of the same compound?
A: The Potency was active: 770 nM.

Q: And the activation [4]?
A: Its activation is inconclusive: -9.84% [phenotype inactive].

Q: What about the Potency [5] of the same compound?
A: The Potency was inconclusive: 0.0549 µM [fluorescent, full curve, poor fit].

Q: What about the Potency [6] of the same compound?
A: The Potency was inconclusive: 6.9 nM [cytotoxic, full curve].

Q: And the Potency [7]?
A: The Potency was inconclusive: 155 nM [falling, full curve].

Q: And the Potency [8]?
A: Its Potency is inconclusive: 34.4 nM [inhibitor, full curve].

Q: And the Potency [9]?
A: The Potency was active: 0.0243 µM.

Q: What about the Potency [10] of the same compound?
A: The Potency was active: 30.6 µM.

Q: What about the activation [11] of the same compound?
A: The activation was inconclusive: -13.1%.

Q: And the Potency [12]?
A: The Potency was inconclusive: 21.9 µM [rising, partial curve].

Q: Which results are given for `CC(C)NC(=O)N1CC(=O)N(c2cc(Cl)cc(Cl)c2)C1=O`?
A: viability change, negative = cytotoxic [1]: inconclusive: 37.6%; Potency [2]: inconclusive: 0.243 µM [rising, single point]; activity change, negative = cytotoxic [2]: inconclusive: 30%; Potency [3]: inconclusive: 61100 nM [inhibitor, single point]; Potency [6]: inconclusive: 30.9 nM [cytotoxic, full curve, poor fit]; activation [11]: inconclusive: 17.5%; Potency [12]: inactive

Q: Which results are given for `CCCCCCCCCCCCn1cc[n+](C)c1`?
A: Potency [1]: inconclusive: 1.22 µM [cytotoxic, full curve]; Potency [2]: inconclusive: 76.6 µM [cytotoxic, single point]; Potency [6]: inconclusive: 1.24 µM [cytotoxic, full curve, poor fit] and inconclusive: 48.9 µM [cytotoxic, partial curve, poor fit] and inconclusive: 44.4 µM [cytotoxic, partial curve, poor fit]; Potency [10]: inconclusive: 0.486 µM [cytotoxic, partial curve, poor fit]

Q: Which Potency [1] does the source give for `NNC(N)=S` here?
A: Its Potency is inconclusive: 71.2 µM [cytotoxic, partial curve, poor fit] and inconclusive: 68.6 µM [cytotoxic, single point].

Q: And the Potency [2]?
A: The Potency was “inactive”.

Q: What about the Potency [3] of the same compound?
A: The Potency was inconclusive: 56600 nM [inhibitor, partial curve, poor fit].

Q: And the Potency [5]?
A: Its Potency is inconclusive: 64.1 µM [rising, partial curve, poor fit].

Q: And the Potency [6]?
A: The Potency was inconclusive: 22.7 µM [cytotoxic, single point] and inconclusive: 3.47 µM [cytotoxic, full curve, poor fit].

Q: What about the ratio activity, negative = inhibition [12] of the same compound?
A: Its ratio activity, negative = inhibition is inconclusive: -30.5% [at 81.1 µM].

Q: With `CO/N=C(/C1=NOCCO1)c1ccccc1Oc1ncnc(Oc2ccccc2Cl)c1F` as the compound, how does the Potency [1] read?
A: The Potency was active: 30.6 µM.

Q: And the Potency [2]?
A: The Potency was inconclusive: 19.3 µM [cytotoxic, partial curve, poor fit].

Q: What about the Potency [3] of the same compound?
A: Its Potency is active: 863 nM.

Q: What about the activation [4] of the same compound?
A: The activation was inconclusive: -7.09% [phenotype inactive].

Q: What about the Potency [5] of the same compound?
A: Its Potency is active: 54.9 µM [inconclusive].

Q: And the Potency [6]?
A: Its Potency is inconclusive: 21900 nM [cytotoxic, partial curve].

Q: And the Potency [7]?
A: The Potency was inconclusive: 2190 nM [falling, full curve].

Q: And the Potency [8]?
A: The Potency was inconclusive: 2170 nM [inhibitor, full curve].

Q: And the Potency [9]?
A: Its Potency is active: 8.63 µM.

Q: And the Potency [10]?
A: Its Potency is inconclusive: 24.3 µM [cytotoxic, partial curve].

Q: What about the Potency [13] of the same compound?
A: Its Potency is active: 54.4 µM.

Q: And the Potency [14]?
A: The Potency was inconclusive: 1.72 µM [falling, partial curve].

Q: And the Potency [11]?
A: The Potency was inconclusive: 15.5 µM [inhibitor, partial curve, poor fit].

Q: And the Potency [12]?
A: The Potency was inconclusive: 24.5 µM.

Q: Which Potency [1] does the source give for `CC1CCC(C(C)C)C(OC(=O)c2ccccc2N)C1` (stereo not drawn) here?
A: The Potency was inconclusive: 15.1 µM [rising, full curve, poor fit].

Q: And the Potency [2]?
A: The Potency was inconclusive: 33.5 µM [cytotoxic, single point] and inconclusive: 26.9 µM [cytotoxic].

Q: What about the Potency [3] of the same compound?
A: Its Potency is inconclusive: 33.5 µM [inhibitor, single point] and inconclusive: 26.9 µM [inhibitor].

Q: And the Potency [5]?
A: The Potency was inconclusive: 4.25 µM [activator, full curve, poor fit] and inconclusive: 54.2 µM [fluorescent].

Q: What about the Potency [6] of the same compound?
A: The Potency was inconclusive: 54200 nM [cytotoxic, single point].

Q: And the activity change, negative = inhibition [9]?
A: The activity change, negative = inhibition was inconclusive: -0.626%.

Q: What about the Potency [15] of the same compound?
A: Its Potency is active: 47.9 µM.

Q: What about the Potency [12] of the same compound?
A: The Potency was inconclusive: 60.8 µM [inhibitor, partial curve, poor fit].

Q: What does the source list for `CCC[CH2][Sn]([Cl])([Cl])[CH2]CCC`?
A: Potency [1]: active: 1.96 µM and active: 2.73 µM; Potency [2]: inconclusive: 155 nM [cytotoxic, full curve, poor fit] and active: 34.4 nM; Potency [3]: active: 49.2 nM and active: 10.9 nM; Potency [4]: inconclusive: 124 nM [inhibitor, partial curve, poor fit] and inconclusive: 68.6 nM [inhibitor, partial curve, poor fit]; Potency [5]: active: 786 nM [inconclusive] and active: 692 nM [inconclusive]; Potency [6]: active: 6.24 µM and active: 2.75 µM; Potency [7]: active: 44.2 µM [inconclusive] and active: 43.6 µM [inconclusive]; Potency [8]: inconclusive: 348 nM [inhibitor, full curve] and inconclusive: 122 nM [inhibitor, full curve]; Potency [10]: active: 2.46 µM and active: 770 nM; Potency [15]: active: 1.39 µM and active: 686 nM; Potency [14]: active: 1.39 µM and active: 486 nM; Potency [11]: inconclusive: 1.97 µM [fluorescent, partial curve] and inconclusive: 195 nM [fluorescent, full curve, poor fit]
